Reference: the supplement of paper PMC10369915
The list shows a part of the results. No stated cut-off is given here; in the data, active = 3.2 or more and inactive = the rest. Most of these values are background signal.

B1: CTNND2_Y508_YF (peptide)
chain: FRQLQYCPSVE
B2: CTNS_Y143_S139F (peptide)
chain: WFISFYPQVIM
B3: CTPS1_Y567 (peptide)
chain: SPRDTYSDRSG
B4: CTSC_Y150 (peptide)
chain: ASENVYVNIAH
B5: CTSC_Y347_YF (peptide)
chain: SSEFHYVGGFF
B6: CWC22_Y797_R794Q (peptide)
chain: SEQNNYSRVAN
B7: CXADR_Y318 (peptide)
chain: YSKTQYNQVPS
B8: CXADR_Y318_YF (peptide)
chain: FSKTQYNQVPS
B9: CXXC1_Y218_F219L (peptide)
chain: RESYKYLPSSL
B10: CXXC1_Y218_YF (peptide)
chain: RESFKYFPSSL
B11: CYBA_Y72_Y72H (peptide)
chain: RWGQKHMTAVV
B12: CYBA_Y87_R90Q_YF (peptide)
chain: PFTRNYFVQAV
B13: CYBA_Y88_YF (peptide)
chain: FTRNFYVRAVL
B14: CYBB_Y324_G322E (peptide)
chain: MEVEQYIFVKC
B15: CYBB_Y41 (peptide)
chain: PPKFFYTRKLL
B16: CYBB_Y41_Y41D (peptide)
chain: PPKFFDTRKLL
B17: CYCS_Y47_G42S (peptide)
chain: SQAPGYSYTAA
B18: CYFIP1_Y108 (peptide)
chain: NRVEIYEKTVE
B19: CYP11B1_Y81_F79I (peptide)
chain: GPIIRYDLGGA

target: SHP2 C-SH2 domain E139D; test: enrichment score (SH2-bound / input frequency) (ratio); bacterial display of known human phosphotyrosine sites (pTyr-Var adds point mutants) read by sequencing; higher = stronger binding; tyrosines were phosphorylated by kinases first; conditions: peptide library: pTyr-Var
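Further: displayed peptides selected on beads carrying the immobilized SH2 domain, with library peptides lacking any tyrosine serving as negative controls.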

Binder | enrichment score
B1 | inactive: 0.768
B2 | inactive: 0.567
B3 | inactive: 0.517
B4 | active: 4.27
B5 | inactive: 0.892
B6 | inactive: 0.512
B7 | inactive: 0.624
B8 | inactive: 0.909
B9 | inactive: 0.872
B10 | inactive: 1.4
B11 | active: 4.42
B12 | inactive: 1.15
B13 | inactive: 1.53
B14 | inactive: 1.02
B15 | inactive: 0.385
B16 | inactive: 1.07
B17 | inactive: 0.714
B18 | inactive: 0.982
B19 | inactive: 0.899

target: SHP2 C-SH2 domain wild-type; test: as above; conditions: peptide library: pTyr-Var

Binder | enrichment score
B1 | inactive: 0.845
B2 | inactive: 0.667
B3 | inactive: 0.653
B4 | active: 5.5
B5 | inactive: 0.857
B6 | inactive: 1.4
B7 | inactive: 0.603
B8 | inactive: 0.68
B9 | inactive: 0.83
B10 | inactive: 1.34
B11 | inactive: 3.03
B12 | inactive: 0.911
B13 | inactive: 1.54
B14 | inactive: 1.38
B15 | inactive: 0.275
B16 | inactive: 0.666
B17 | inactive: 0.675
B18 | inactive: 0.993
B19 | inactive: 1.13

target: SHP2 N-SH2 domain L43F; test: as above; conditions: peptide library: pTyr-Var

Binder | enrichment score
B1 | inactive: 0.873
B2 | inactive: 0.623
B3 | inactive: 0.548
B4 | inactive: 3.09
B5 | inactive: 0.913
B6 | inactive: 0.416
B7 | inactive: 0.562
B8 | inactive: 0.814
B9 | inactive: 0.626
B10 | inactive: 0.647
B11 | active: 3.66
B12 | inactive: 0.942
B13 | inactive: 0.929
B14 | inactive: 1.1
B15 | inactive: 0.307
B16 | inactive: 1.15
B17 | inactive: 0.781
B18 | inactive: 0.921
B19 | inactive: 0.984

target: SHP2 N-SH2 domain T42A; test: as above; conditions: peptide library: pTyr-Var

Binder | enrichment score
B1 | inactive: 0.93
B2 | inactive: 0.619
B3 | inactive: 0.433
B4 | active: 6.35
B5 | inactive: 0.724
B6 | inactive: 0.442
B7 | inactive: 0.55
B8 | inactive: 0.665
B9 | inactive: 0.745
B10 | inactive: 1.61
B11 | active: 3.45
B12 | inactive: 0.982
B13 | inactive: 0.985
B14 | inactive: 1.03
B15 | inactive: 0.356
B16 | inactive: 1.3
B17 | inactive: 0.423
B18 | inactive: 0.712
B19 | inactive: 0.763

target: SHP2 N-SH2 domain T52S; test: as above; conditions: peptide library: pTyr-Var

Binder | enrichment score
B1 | inactive: 0.809
B2 | inactive: 0.6
B3 | inactive: 0.582
B4 | active: 3.58
B5 | inactive: 1.03
B6 | inactive: 0.551
B7 | inactive: 0.558
B8 | inactive: 0.615
B9 | inactive: 0.752
B10 | inactive: 1.13
B11 | active: 3.27
B12 | inactive: 0.795
B13 | inactive: 0.77
B14 | inactive: 0.878
B15 | inactive: 0.409
B16 | inactive: 0.911
B17 | inactive: 0.794
B18 | inactive: 0.69
B19 | inactive: 0.974

target: SHP2 N-SH2 domain wild-type; test: as above; conditions: peptide library: pTyr-Var

Binder | enrichment score
B1 | inactive: 1.17
B2 | inactive: 1.02
B3 | inactive: 0.609
B4 | inactive: 2.48
B5 | inactive: 0.988
B6 | inactive: 0.469
B7 | inactive: 0.601
B8 | inactive: 1.06
B9 | inactive: 0.941
B10 | inactive: 0.961
B11 | inactive: 3.08
B12 | inactive: 0.826
B13 | inactive: 1.75
B14 | inactive: 1.48
B15 | inactive: 0.411
B16 | inactive: 0.804
B17 | inactive: 0.652
B18 | inactive: 0.967
B19 | inactive: 1.01
